From PubChem BioAssay AID686978 (National Center for Advancing Translational Sciences (NCATS), 2013)
Several values for one entry are separate records, joined by “and”; a condition that tells them apart may be missing. Equal values may be shown once. Among all 420,000 compounds or so, about 64,000 (15%) were called active. The inconclusive results got no clear call from the source; some entries with a clear call stand among them for comparison. Calls come from the whole dose curve; as a rule, active = well fitted inhibition curve with a large enough effect; inconclusive = small, poorly fitted or top-dose-only effect; inactive = flat fitted curve, though single readings scatter. Where the call is inconclusive, the potency comes from a doubtful curve fit. More than one record can exist for a structure, and the calls need not agree.

Assay: qHTS for Inhibitors of human tyrosyl-DNA phosphodiesterase 1 (TDP1): qHTS in cells in absence of CPT; note: nearly all actives have a fitted effect of over 55% in size
Conditions: DT40 Tdp1-/- hTDP1 cells, no CPT, ATP luminescence, 48 h; series mostly up to 46.2 µM
Procedure, shortened: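 Growth of hTDP1-complemented DT40 Tdp1-knockout cells is measured by ATP luminescence after at least 48 hr compound exposure at 37 °C, with DMSO substituting for the 20 nM CPT used in the parallel screen.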
Potency is the fitted concentration of half-maximal effect; tags give direction and shape of the fitted curve.

| Compound | Potency |
| --- | --- |
| O=S(=O)(Nc1ccc(Cc2ccncc2)cc1)c1ccc(Br)s1 | inconclusive: 25.9 µM [inhibitor, single point] |
| Cc1c(NC(=O)C(C)OC(=O)c2cc(Cl)ccc2O)c(=O)n(-c2ccccc2)n1C (stereo not given) | inactive |
| CN(C(=O)c1cc2nc(-c3ccco3)cc(C(F)(F)F)n2n1)C1CCCCC1 | inconclusive: 35.5 µM [inhibitor, single point] |
| CCOc1ccc(NC(=O)CN(C)S(=O)(=O)c2cnc[nH]2)cc1 | inactive and inconclusive: 29.1 µM [inhibitor, single point] |
| COc1ccc(S(=O)(=O)N2CCN(CC(=O)Nc3cccc(F)c3)CC2)cc1 | inactive |
| Cc1ccccc1OCCC(=O)Nc1ccc(S(=O)(=O)N(C)C2CCN(C)CC2)cc1 | inconclusive: 29.1 µM [inhibitor, single point] |
| CC(Sc1nnc2c(n1)[nH]c1ccccc12)C(=O)NC1CCCCC1 (stereo not given) | active: 20.6 µM |
| COc1ccc(/C=C/c2ccc3ccccc3n2)cc1OC | active: 12.6 µM |
| CCC1CCCCN1C(=O)COC(=O)c1cc(C)nc2ccccc12 (stereo not given) | inactive |
| COc1ccc(/C=N\NC(=O)c2ccc(F)cc2)cc1COc1ccccc1C(N)=O | inconclusive: 16.4 µM [inhibitor, single point] |
| Cc1ccccc1N1CCN(C2CCCN(C(=O)CSc3ccccn3)C2)CC1 (stereo not given) | inconclusive: 29.1 µM [inhibitor, single point] |
| COc1ccc(NC(=O)NC(C)c2c(-n3cccc3)sc3c2CCN(C)C3)c(OC)c1 (stereo not given) | active: 23.1 µM |
| C[C@H](NC(=O)c1cc2c(cn1)[nH]c1ccccc12)C(=O)O | inconclusive: 29.1 µM [inhibitor, single point] |
| O/N=C/c1ccc(OCc2ccccc2)c(Cl)c1 | inconclusive: 16.4 µM [inhibitor, partial curve] |
| CS(=O)(=O)Nc1cccc(NC(=O)c2ccc(-c3ccc(F)c(F)c3)c3ccoc23)c1 | inconclusive: 29.1 µM [inhibitor, single point] |
| Cc1nnc(NC(=O)C2CC(=O)N(Cc3ccccc3)C2)s1 (stereo not given) | inactive |
| Cc1cccc(-c2nn(-c3ccccc3)cc2C(=O)NCC(c2cccs2)N2CCOCC2)c1 (stereo not given) | inconclusive: 23.1 µM [inhibitor, single point] |
| CCOC(=O)[C@H]1[C@H]2COc3ccc(Cl)cc3[C@@H]2N2C(=O)c3cc(OC)ccc3NC(=O)[C@@]12C | active: 23.1 µM |
| CCn1c(C)cc(C=C2C(=O)c3ccccc3C2=O)c1C | inconclusive: 29.1 µM [inhibitor, single point] |
| Cn1c(=O)c(C(=O)NNC(=O)c2cccc(Cl)c2)c(O)c2ccccc21 | active: 13 µM |
| COc1cc2c(cc1OC)C(=NO)CCCC2 | inconclusive: 0.731 µM [inhibitor, full curve, poor fit] |
| Nc1c(C(=O)Nc2cccc(C(F)(F)F)c2)c2ccccn2c1C(=O)c1ccccc1 | inconclusive: 3.66 µM [inhibitor, full curve, poor fit] |
| Cc1nn2cc(-c3ccc(Cl)cc3)cnc2c1Cl | inactive |
| Cc1ccc(N2CCN(C(=O)C(=O)c3ccc(F)c(F)c3)CC2)cc1 | inactive |
| CCC(C)(C)C1CCc2c(sc(NC(=O)c3ccccc3C(=O)O)c2C#N)C1 (stereo not given) | inconclusive: 20.6 µM [inhibitor, single point] |

| Compound | Potency |
| --- | --- |
| COc1ccc(OC)c(CN2CCN(C(=O)c3ccc(F)cc3)CC2)c1 | inactive |
| CCOC(=O)Cn1c(=O)n(Cc2ccc(C)cc2)c(=O)c2cccnc21 | inconclusive: 29.1 µM [inhibitor, partial curve, poor fit] |
| Cc1csc(=O)n1CCC(=O)OCC(=O)Nc1ncc(Cl)cc1Cl | inactive |
| C=CCn1c(SC(C)C(=O)NCCC2=CCCCC2)nc2ccccc2c1=O (stereo not given) | inconclusive: 29.1 µM [inhibitor, single point] |
| COc1cccc(NC(=O)CN(C)C(=O)C(C)Sc2ccccc2)c1 (stereo not given) | inconclusive: 29.1 µM [inhibitor, single point] |
| CN1C(=O)CC(NNC(=O)c2ccccc2)C1=O (stereo not given) | inactive |
| COc1ccc(S(=O)(=O)Nc2nc3c(s2)CCCC3)cc1 | inactive |
| CCOC(=O)C1(CCOc2ccccc2)CCN(Cc2cc(OC)c(O)cc2Cl)CC1 | inconclusive: 18.4 µM [inhibitor, single point] |
| Fc1ccc(/C=N/n2c(-c3cccs3)n[nH]c2=S)cc1 | inactive |
| CCOC(=O)c1nc(-c2ccc3c(c2)OCO3)[nH]c1C | inconclusive: 29.1 µM [inhibitor, single point] |
| CCOC(=O)Cn1nnc2c(sc3nc4c(c(-c5ccccc5)c32)CCC4)c1=O | active: 16.4 µM |
| CCN1C(=O)/C(=C/c2cccs2)S/C1=N\S(=O)(=O)c1ccc(C)cc1 | inconclusive: 2.59 µM [inhibitor, full curve, poor fit] |
| COc1cc(S(C)=O)ccc1-c1nc2ncccc2[nH]1 (stereo not given) | inactive |
| Cc1ccc2oc(-c3cc(NC(=O)/C=C/c4ccco4)ccc3Cl)nc2c1 | active: 20.6 µM |
| CC1(C)Cc2cccc(OCC(=O)N3CCN(c4ccccc4F)CC3)c2O1 | inconclusive: 29.1 µM [inhibitor, single point] |
| c1ccc2oc(-c3nn4c(Cn5cnc6ccccc65)nnc4s3)cc2c1 | inconclusive: 29.1 µM [inhibitor, single point] |
| CC(=O)Nc1ccc(S(=O)(=O)N2CCSC2)cc1 | inactive |
| CNc1ccc(/C=C/c2ccccc2)cc1 | inconclusive: 17.8 µM [inhibitor, partial curve] |
| Cc1ccc(SCCC(=O)Nc2ccccc2Br)cc1 | inactive |
| CCOC(=O)C(NC(=O)CC(C)C)(Nc1cc(C)on1)C(F)(F)F (stereo not given) | inactive |
| COc1ccc(-c2nncnn2)cc1 | inconclusive: 29.1 µM [inhibitor, single point] |
| CCCn1c(O)c(N=N)c2ccccc21 | inactive |
| COc1ccc(Nc2ncnc3sccc23)cc1 | inconclusive: 9.2 µM [inhibitor, partial curve] |
| COc1c2ccoc2c(OC)c2oc(=O)ccc12 | inconclusive: 29.1 µM [inhibitor, single point] |
| Cc1ccc(-c2csc3nc(SCC(N)=O)n(Cc4ccccc4)c(=O)c23)cc1 | inconclusive: 29.1 µM [inhibitor, single point] |

| Compound | Potency |
| --- | --- |
| Cc1onc(-c2ccccc2)c1NC(=O)N(Cc1ccccc1)C(C)C | inconclusive: 29.1 µM [inhibitor, single point] |
| CCN(CC(=O)Nc1ccc(NC(C)=O)cc1)C(=O)c1cccc(Oc2ccccc2)c1 | inactive |
| CC(=O)N1CCN(c2ccc(NC(=O)c3ccc(N4CCCC4)c([N+](=O)[O-])c3)cc2Cl)CC1 | inconclusive: 18.4 µM [inhibitor, single point] |
| CC(C)(C)NC(=O)Cn1cnc2cc([N+](=O)[O-])ccc2c1=O | inactive |
| COc1ccc(NC(=O)CCc2c(C)nc3c(-c4ccc(F)cc4)c(C)nn3c2C)c(OC)c1 | active: 20.6 µM |
| CCCCOc1ccc(-c2nnn(CC(=O)NCc3ccco3)n2)cc1 | active: 4.61 µM |
| COc1ccccc1CN1C(=O)c2ccccc2C1C(=O)NC1CCC(C)CC1 (stereo not given) | inactive |
| Cc1ccc(Cc2c(C(C)(C)C)nc3ccc(Br)cn23)cc1 | inconclusive: 20.6 µM [inhibitor, single point] |
| O=C(CCCc1nc2ccccc2s1)N1CCN(c2ccccc2F)CC1 | inactive |
| CCOCCCN(C(=O)c1snc(C(N)=O)c1N)C(C(=O)NC(C)(C)C)c1ccc(Cl)cc1 (stereo not given) | inconclusive: 11.6 µM [inhibitor, partial curve, poor fit] |
| COC(=O)c1cc(S(=O)(=O)N2CCC(c3ccccc3)C2)c[nH]1 (stereo not given) | inconclusive: 20.6 µM [inhibitor, single point] |
| COc1ccccc1NC(=O)c1cc(S(=O)(=O)NCCC2=CCCCC2)ccc1F | inconclusive: 18.4 µM [inhibitor, single point] |
| CCn1c(=O)cc(SCC(=O)N2CCN(c3ccccc3F)CC2)c2ccccc21 | inactive and active: 25.9 µM |
| Cc1nc(-c2ccccc2)cn(O)c1=O | inactive |
| CC(=O)Nc1cccc(-c2ccnc3c2CC(C(=O)NCC2CCOCC2)O3)c1 (stereo not given) | active: 2.31 µM |
| O=C(NCCc1ccccc1)C1CCCN1C(=O)Nc1cccc(Cl)c1 (stereo not given) | inconclusive: 23.1 µM [inhibitor, single point] |
| O=C1N[C@H](Cc2ccccc2)COC(=O)[C@H](Cc2ccc(F)cc2)C/C=C\C[C@@H]1CC(=O)N(CCO)Cc1ccccc1 | active: 16.4 µM |
| O=C1OCCC1N1C(=O)c2ccccc2S1(=O)=O (stereo not given) | inactive |
| CCOC(=O)c1ccccc1NC(=O)COC(=O)CCC1CCCC1 | inactive |
| CCC(Sc1nc(C)cc(C)n1)C(=O)Nc1ccc(S(N)(=O)=O)cc1 (stereo not given) | inactive |
| O=C(NCCCn1ccnc1)c1ccc(Br)cc1 | inactive |
| CC(NC(=O)c1ccco1)C(c1cccs1)N1CCN(c2ccccc2F)CC1 (stereo not given) | inconclusive: 23.1 µM [inhibitor, single point] |
| COc1ccc(N(CC(=O)Nc2nc3ccc(C)cc3s2)S(=O)(=O)c2c(C)nn(C)c2C)cc1 | inconclusive: 20.6 µM [inhibitor, single point] |
| Cc1ccc(C(C)C)c(OCCOCCN2CCNCC2)c1 | inconclusive: 29.1 µM [inhibitor, single point] |
| CCN(CC)C(=O)OCc1c(-c2ccccc2)ncc2ccccc12 | active: 23.1 µM |
